# Paper PMC4336329 (PLoS ONE, 2015)
# Among all 310,000 compounds or so, about 2,200 (0.71%) showed an effect of 50% or more. Effects have a minus sign here. The list shows a part of the results.
# Molecular target: human ether-à-go-go-related gene (hERG) potassium channel (human, UniProt Q12809)
# Experiment: primary screen, population patch clamp on CHO cells stably expressing hERG
# human ether-à-go-go-related gene (hERG) potassium channel, sequence (Q12809 whole entry, looked up): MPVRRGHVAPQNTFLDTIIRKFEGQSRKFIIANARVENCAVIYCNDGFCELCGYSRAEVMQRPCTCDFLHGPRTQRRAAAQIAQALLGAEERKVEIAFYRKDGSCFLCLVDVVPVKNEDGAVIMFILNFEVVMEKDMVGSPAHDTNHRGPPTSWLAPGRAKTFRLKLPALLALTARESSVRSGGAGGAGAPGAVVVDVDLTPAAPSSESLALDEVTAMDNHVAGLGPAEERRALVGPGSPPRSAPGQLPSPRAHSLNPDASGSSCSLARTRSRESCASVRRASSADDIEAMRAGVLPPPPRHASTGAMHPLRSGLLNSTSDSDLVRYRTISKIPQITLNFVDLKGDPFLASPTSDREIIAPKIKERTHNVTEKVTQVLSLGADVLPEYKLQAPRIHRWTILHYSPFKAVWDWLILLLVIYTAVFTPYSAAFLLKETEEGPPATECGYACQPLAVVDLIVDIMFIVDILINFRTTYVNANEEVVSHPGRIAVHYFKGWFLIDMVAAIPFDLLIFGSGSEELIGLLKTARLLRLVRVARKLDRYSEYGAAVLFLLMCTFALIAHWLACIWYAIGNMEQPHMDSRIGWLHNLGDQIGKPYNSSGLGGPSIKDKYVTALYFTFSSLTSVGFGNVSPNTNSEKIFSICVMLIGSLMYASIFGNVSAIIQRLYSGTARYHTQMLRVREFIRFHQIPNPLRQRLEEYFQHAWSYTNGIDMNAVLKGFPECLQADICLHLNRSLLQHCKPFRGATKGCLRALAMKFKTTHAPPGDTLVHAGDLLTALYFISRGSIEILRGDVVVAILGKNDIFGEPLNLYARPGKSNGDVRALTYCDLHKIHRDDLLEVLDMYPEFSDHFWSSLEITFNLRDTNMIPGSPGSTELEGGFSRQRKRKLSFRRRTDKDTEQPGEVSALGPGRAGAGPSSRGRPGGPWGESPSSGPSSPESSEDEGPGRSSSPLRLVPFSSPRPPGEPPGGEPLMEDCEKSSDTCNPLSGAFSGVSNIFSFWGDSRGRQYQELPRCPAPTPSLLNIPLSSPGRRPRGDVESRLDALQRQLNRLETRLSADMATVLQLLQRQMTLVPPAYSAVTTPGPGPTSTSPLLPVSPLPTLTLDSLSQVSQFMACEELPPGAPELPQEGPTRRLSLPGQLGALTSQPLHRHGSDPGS
row,Structure (SMILES),"hERG current change (%, negative = inhibition) at 1uM [%]"
1,CCOc1cc(-c2noc(CCCC(N)=O)n2)cc(Br)c1OC,5.46
2,COc1ccc(OC)c(-n2c(-c3ccc(O)cc3O)n[nH]c2=S)c1,12.7
3,CCOc1ccc(C(=O)Nn2cnnc2)cc1OCC,-23.6
4,COc1ccc([N+](=O)[O-])cc1Nc1ncnc2ccccc12,6.32
5,Cc1nn(CCOc2cccc(Br)c2)c(C)c1[N+](=O)[O-],6
6,COc1ccc(N(CC(=O)Nc2ccccc2C(=O)NCC(C)C)S(C)(=O)=O)cc1,9.87
7,COCC1OS(=O)(=O)NC(CC(=O)SC(C)(C)C)C1C (stereo not shown),9.98
8,COC(=O)Nc1nnc(SCc2ccc(C)cc2)s1,16
9,Cn1c(=O)c2c(nc(Br)n2Cc2nnc(N)s2)n(C)c1=O,6.35
10,COc1ccc(CCN)cc1O.Cl,15.1
11,CC(=O)N(C1CC(C)C(C#N)(C#N)C1(C#N)C#N)N(C)C (stereo not shown),-10.5
12,COc1ccc(N(CC(=O)Nc2cccc3ccccc23)S(C)(=O)=O)cc1,8.23
13,Cc1ccc(S(=O)(=O)/C(=C/Cl)NC(=O)c2ccccc2)cc1,12.1
14,Cc1cccc(N2CCN(C(=O)c3ccc(Cl)c(S(=O)(=O)N4CCc5ccccc5C4)c3)CC2)c1C,11.7
15,CC(C)(C)c1ccc(C(CC(=O)O)NC(=O)Cc2ccccc2)cc1 (stereo not shown),14
16,O=C(NC(=S)Nc1ccc(O)cc1)c1cncc(Br)c1,15.3
17,COc1ccccc1CN(C)C(=O)c1ccc2c(c1)NC(=O)CS2,12.9
18,CC#CCN(CC#CC)S(=O)(=O)c1ccc(-n2cnnn2)c(OC)c1,-2.59
19,Cc1cc(C)n(-c2cc(-n3nc(C)cc3C)ncn2)n1,0.604
20,O=C(Nc1cccc(-c2cn3ccccc3n2)c1)c1cccc(Cl)c1,6.61
21,CCSc1nc2c(c(=O)[nH]1)C(c1ccc(C)cc1)C1=C(CCCC1=O)N2 (stereo not shown),8.43
22,O=c1c2ccccc2c(C=NCc2ccccn2)c(O)n1-c1ccccc1,6.58

row,Structure (SMILES),"hERG current change (%, negative = inhibition) at 1uM [%]"
1,CCc1nc(SCC(=O)c2cccc([N+](=O)[O-])c2)n[nH]1,7.92
2,CCCN(CC(=O)Nc1ccccc1C)C(=O)/C=C/c1ccc(OCC)c(OC)c1,-2.59
3,CC(=O)NS(=O)(=O)c1ccc(NC(=O)NC2CCCCC2)cc1,-0.47
4,O=C(c1cccc(N2C(=O)C3CC=CCC3C2=O)c1)N1CCCc2ccccc21 (stereo not shown),-16.3
5,CCOC(=O)/C(=C/c1ccc(OC(=O)c2ccncc2)cc1)C(C)=O,-1.57
6,O=C(CCc1c[nH]c2ccccc12)N1CCN(c2ccc(F)cc2)CC1,1.71
7,O=C(/C=C/c1ccccc1Cl)NNC(=O)c1cccs1,21.3
8,COc1ccc(C2NC(c3ccc(OC)cc3)C([N+](=O)[O-])C(C)(C)C2[N+](=O)[O-])cc1 (stereo not shown),16.9
9,COc1ccnc(Nc2ccc(C)c(C)c2)c1C#N,14.1
10,Cn1c(N)c(C(=O)COC(=O)c2ccc(S(=O)(=O)N3CCCCC3)cc2)c(=O)n(C)c1=O,14.6
11,C/C(=N\NC(=O)CSCc1ccccc1Br)c1cccc([N+](=O)[O-])c1,10.9
12,COC(=O)c1cc(NC(=O)c2cc(-c3ccc(C(F)(F)F)cc3)oc2C(F)(F)F)ccc1N1CCOCC1,10.6
13,CCn1nc(NS(=O)(=O)c2ccc([N+](=O)[O-])cc2)c2cc3ccccc3nc21,14.1
14,Cc1ccc(C(=O)NNC(=O)c2ccccc2O)cc1S(=O)(=O)N1CCCCC1,13.3
15,COc1ccc2occ(C(C)=O)c2c1,17.5
16,COCc1ccc(O)c2ncccc12,3.4
17,Cc1cc(S(=O)(=O)NC(C)C)ccc1OCC(=O)Nc1ccc2c(c1)OCCO2,2.72
18,O=C(Cc1ccc(Cl)cc1)Nc1cccc(S(=O)(=O)N2CCCCC2)c1,3.87
19,O=[N+]([O-])c1cc(Cl)ccc1NCCNS(=O)(=O)c1ccccc1,5.63
20,CCC1(C)Cc2ccccc2-c2nc(NCCCO)n(-c3ccccc3)c(=O)c21 (stereo not shown),-5.83
21,CCc1ccc(CN(C)CC(=O)Nc2ccc3c(c2)CCC3)cc1,8.43
22,O=C1OCc2cc(N=Nc3c(O)[nH]c(=O)[nH]c3=O)ccc21,12.2

row,Structure (SMILES),"hERG current change (%, negative = inhibition) at 1uM [%]"
1,CCOC(=O)c1c(CN2CCC(C)CC2)oc2ccc(OC)cc12,4.28
2,CC(=O)N1C(=O)C(=C2C=C(C)OC(C)=C2)c2ccccc21,-3.67
3,Cc1nc2nc[nH]n2c(=O)c1C/C=C/c1ccccc1,6.92
4,O=C(CN1CCN(Cc2ccccc2)CC1)Nc1cccc(S(=O)(=O)N2CCCCCC2)c1,-45
5,CN(C(=O)c1ccc2c(c1)OCCO2)c1c(N)n(Cc2ccccc2)c(=O)[nH]c1=O,15.5
6,CCN(CC(=O)NCc1ccc(Cl)cc1)C(=O)/C=C/c1ccc(C#N)cc1,-52.1
7,COc1ccc2[nH]c(=O)c(CNc3ccccc3)cc2c1,29.4
8,N#C/C(=C\c1ccco1)C(=O)Nc1cccc2ncccc12,4.28
9,CCNS(=O)(=O)c1ccc(CCC(=O)NCCC2=CCCCC2)cc1,-4.5
10,CCc1ccc(N2CC(C(=O)NCCC3=CCCCC3)CC2=O)cc1 (stereo not shown),6.39
11,CCOC(=O)c1c(NC(=O)c2cc(-c3cccc(O)c3)on2)sc(C(C)=O)c1C,25.4
12,O=C(NC(=S)N1CCN(c2ccccn2)CC1)c1ccco1,17.2
13,CCOC(=O)C1CCN(C(=O)COc2cccc(C)c2)CC1,11
14,CC(C)c1cc(NCC2CCCO2)n2c(nc3ccccc32)c1C#N (stereo not shown),0.419
15,CC(=O)Nc1ccc(S(=O)(=O)NNC(=O)COc2cc(C)ccc2C(C)C)cc1,4.32
16,O=C(Nc1ccccc1C(=O)N1CCOCC1)c1ccncc1,11.7
17,Cc1cc(C)c(-c2csc(NC(=O)/C=C/c3cccs3)n2)c(C)c1,0.21
18,Cc1cc(Oc2ccc(=O)n(C)n2)nc(Oc2ccc(=O)n(C)n2)n1,7.44
19,O=C(c1ccco1)N(Cc1nc2ccccc2c(=O)[nH]1)C1CCCC1,6.34
20,Cc1ccc(Nc2nc(N)nc(CSc3nnc(-c4ccncc4)o3)n2)cc1,7.95
21,N/C(=N\OC(=O)CC1CCCCC1)c1ccc(Cl)cc1,11.5
22,Cc1ccc(CNC(=O)C2CC(=O)N(CCC(C)C)C2)cc1 (stereo not shown),14.1

row,Structure (SMILES),"hERG current change (%, negative = inhibition) at 1uM [%]"
1,Fc1ccc(Cn2nnnc2C(c2ccc(Cl)cc2)N2CC=C(c3ccc(F)cc3)CC2)cc1 (stereo not shown),18.5
2,O=S(=O)(NCc1ccc(F)cc1)c1cc(Br)ccc1Br,12.2
3,O=C(Cc1cccc2ccccc12)NN1C(=O)/C(=C\c2cccnc2)SC1=S,11.4
4,CCOC(=O)c1sc(NC(=O)c2ccc(S(=O)(=O)N3CCOCC3)cc2)nc1-c1ccccc1,14.1
5,Cc1ccc(Cn2ccccc2=N)cc1.Cl,11.7
6,CC/C(=N\Nc1ccc([N+](=O)[O-])cc1)c1ccccc1,-13.1
7,O=C(Nc1ccc(N2CCN(C(=O)c3ccco3)CC2)cc1)c1ccccc1,5.94
8,C#CCOCCOCCOCCNc1nc(N2CCN(C(=O)Cn3cc(CC(C)O)nn3)CC2)nc(N2CCN(C(=O)Cn3cc(CC(C)O)nn3)CC2)n1 (stereo not shown),12.5
9,Cc1cccc(N2CCN(C(=O)Cn3sc4nc(C)cc(C)c4c3=O)CC2C)c1 (stereo not shown),10
10,CCOc1ccc(N2CC(C(=O)Nc3ccc(S(=O)(=O)N4CCCC4)cc3)CC2=O)cc1 (stereo not shown),6.22
11,Cc1ccc(-n2cc(-c3ccc([N+](=O)[O-])cc3)[nH]c2=S)c(C)c1,-8.41
12,Cc1ccc(C)c(NC(=O)c2cc(-c3ccccc3O)n[nH]2)c1,13.2
13,CCCNC(=O)c1cccc(COCC(F)(F)C(F)F)c1,-1.67
14,CN1CCN(NC(=O)c2cccc(S(=O)(=O)N3CCCCCC3)c2)CC1.Cl,9.89
15,C=CCn1c(SCCOc2ccc(OC)cc2)nnc1C(C)NC(=O)c1ccc(OC)cc1 (stereo not shown),11.6
16,CC(C)(C)OC(=O)N/N=C\c1ccc(OC(=O)c2ccco2)cc1,10.8
17,CCN1CCN(C2CC(=O)NC2=O)CC1 (stereo not shown),13.5
18,CCOC(=O)c1sc2nc(-c3cccnc3)ccc2c1N,5.59
19,O=C(OC(C(=O)NC1CCCCC1)c1ccc(C(F)(F)F)cc1)c1ccco1 (stereo not shown),-0.698
20,O=C1N(CC(=O)N2CCc3ccccc32)CCN1Cc1ccc(Cl)cc1,4.58
21,NS(=O)(=O)c1ccc(NC(=O)c2cccc3ccccc23)cc1,5
22,COc1cc(CNCCCN2CCOCC2)cc(Br)c1OCc1ccc(Cl)cc1.Cl,8.52
